Measurements published in PubChem BioAssay AID1671193 (National Center for Advancing Translational Sciences (NCATS), 2021).
The campaign covered roughly 150,000 compounds. About 180 (0.12%) were called active. Inconclusive results, whose numbers are uncertain, are shown with a selection of clear calls. The call rests on the fitted dose curve; in most records, active means well fitted cell-killing curve with a large enough effect; inconclusive means small, poorly fitted or top-dose-only effect, or effect the other way; inactive means flat fitted curve, though single readings scatter. Where the call is inconclusive, the potency comes from a doubtful curve fit.

test: GF-AFC viability counterscreen for inhibitors of alpha-synuclein gene (SNCA) expression; conditions: HEK-293-SNCA-luc viability, GF-AFC fluorescence, 24 h; activity change, negative = cytotoxicity: at 57.1 µM (top of the series) unless noted; further: nearly all actives have a fitted effect of over 30% in size;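 on activity change, negative = cytotoxicity: 0% = DMSO-treated cells and -100% = medium-only wells without cells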
In short: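 HEK-293-SNCA-luc cells (1500/well) plated 24 h, then exposed 24 h to a dilution series; GF-AFC added 30 min at 37C, fluorescence 405/540 nm; normalised to medium-only and DMSO wells, Hill fit.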
Potency means the concentration at half of the fitted maximal effect; tags describe the fitted curve by direction and shape.

SMILES | Potency | activity change, negative = cytotoxicity
CC=C1NC(=O)[C@H]2CSSCCC=C[C@H](CC(=O)N[C@H](C(C)C)C(=O)N2)OC(=O)[C@H](C(C)C)NC1=O | inconclusive: 21.5 µM [cytotoxic, partial curve, poor fit] | –
Cn1c(Cn2cccn2)nnc1C1CC(NC(=O)c2sccc2N)C1 (configuration not stated) | inactive | –
Cc1cc(C)cc(-c2ccc(CN3CCCC3C(=O)NCc3ccc4c(c3)OCO4)cc2)c1 (configuration not stated) | inactive | –
CCc1cccc(NC(=O)N2CCCC(c3noc(COc4ccccc4)n3)C2)c1 (configuration not stated) | – | inactive: 15.3% [at 12.5 µM]
COc1cccc(CNC(=O)[C@@H]2C[C@@H](O)CN2C2CCN(C(=O)Cc3cccc(OC)c3)CC2)c1 | inactive | –
CC1CCN(C(=O)Cn2c(=O)n(CCCCCC(=O)NCc3ccccc3Cl)c(=O)c3sccc32)CC1 | inconclusive: 1.58 µM [cytotoxic, partial curve, poor fit] | –
CCN(CC)S(=O)(=O)c1ccc2c(c1)N(CC(=O)N1CCN(c3cccc(Cl)c3)CC1)C(=O)CO2 | inconclusive: 22.4 µM [cytotoxic, partial curve] | –
COCCOCC(=O)N1CCC2(CC1)C(OC)CN2c1cccc(F)c1 (configuration not stated) | inactive | –
COCCN1C(=O)CS(=O)(=O)C12CCN(C(=O)c1ccc3c(c1)OCO3)CC2 | inconclusive: 39.8 µM [cytotoxic, single point] | –
CCc1ccc(NS(=O)(=O)c2ccc3oc(=O)c4ncn(CC)c4c3c2)cc1 | inconclusive: 11.2 µM [cytotoxic, partial curve, poor fit] | –
CN(CC(=O)NCc1ccc(Cl)cc1)S(=O)(=O)c1ccc2[nH]c3c(c2c1)CCCC3 | inconclusive: 31.6 µM [cytotoxic, single point] | –
COc1ccc(NC(=O)CCS(=O)(=O)c2nc(-c3cccs3)cc(C(F)(F)F)n2)cc1 | inconclusive: 39.8 µM [cytotoxic, single point] | –
CN(Cc1cnc2nc(N)nc(N)c2n1)c1ccc(C(=O)N[C@@H](CCC(=O)O)C(=O)O)cc1 | inconclusive: 11.2 µM [rising, partial curve, poor fit] | –
COc1cc(F)ccc1-c1nc(-c2c(C)noc2C)cc2cc(C)oc12 | inactive | –
Cc1ccc(-n2nc(C)c([C@@H]3C=C[C@@H](NCc4ccc(N(C)C)cc4)C3)c2C)cc1Cl | inconclusive: 56.2 µM [cytotoxic, single point] | –
COc1cc(-c2nc(SCC(=O)Nc3ccc(C)cc3)c(-c3ccc(F)cc3)[nH]2)cc(OC)c1OC | inconclusive: 8.91 µM [cytotoxic, partial curve, poor fit] | –
O=C1CC(c2ccccc2)N(Cc2ccncc2)CCCN(S(=O)(=O)c2cccnc2)CCN1 (configuration not stated) | inactive | –
CC(C)CNc1ccc2c(n1)C(C)(C(=O)NC1CCN(C)CC1)CN(Cc1ccccc1)C2 (configuration not stated) | inactive | –
COc1ncccc1-c1cnc2[nH]cc(CC(=O)N3CCOCC3)c2c1 | inactive | –
Cc1ccc(-c2nnc(Nc3ccc(OC(F)(F)Cl)cc3)c3ccccc23)cc1S(=O)(=O)NC(C)(C)CO | inconclusive: 31.6 µM [cytotoxic, single point] | –
CCn1c(CN2CCN(Cc3csc(C)n3)CC2)nnc1C1CC(N)C1 (configuration not stated) | inconclusive: 6.31 µM [cytotoxic, single point] | –

SMILES | Potency | activity change, negative = cytotoxicity
COC(=O)[C@H](NC(=O)[C@@]1(O)C[C@@H](O)[C@H](O)[C@@H](NC(=O)CC2(CC(=O)O)CCCC2)C1)C(C)C | inactive | –
O=C(CN1C(=O)COc2ccc(S(=O)(=O)N3CCCCCC3)cc21)Nc1cccc(Cl)c1 | inconclusive: 8.91 µM [cytotoxic, partial curve, poor fit] | –
O=C(c1cccc(F)c1)N1CC[C@H]2COC(=O)N2c2cc(F)ccc2C1 | inactive | –
Cc1[nH]n2c(=O)cc(-c3ccc(Cl)cc3)nc2c1-c1ccccc1 | inconclusive: 22.4 µM [rising, partial curve] | –
CCn1cc(CN2CCCC23CCN(c2cc(C)nc4ccccc24)CC3)cn1 | inconclusive: 39.8 µM [cytotoxic, partial curve, poor fit] | –
O=C(Cn1nc2c(cc1=O)CCCC2)N1CCN(Cc2ccccc2Cl)CC1 | inconclusive: 39.8 µM [cytotoxic, partial curve, poor fit] | –
O=C(Cn1c(=O)n(-c2ccc(F)cc2)c(=O)c2sc3ccccc3c21)NC1CCCC1 | inconclusive: 0.891 µM [cytotoxic, full curve, poor fit] | –
O=C(NCCc1ccc(Cl)cc1)c1nc2cccnc2n(CCc2ccccc2)c1=O | inactive | –
COc1ccc(CCC(=O)NCc2ccc3c(c2)CCN3C(=O)c2ccc(Cl)cc2)cc1 | – | inconclusive: 41.8%
COC(=O)c1ccc(Cl)cc1NC(=O)Nc1nnc(N(C)C2CCCCC2)s1 | inconclusive: 2 µM [cytotoxic, full curve, poor fit] | –
CCc1c(C)sc2c1CCN(Cc1cccc(OC)c1)C2c1ccccc1 (configuration not stated) | inconclusive: 39.8 µM [cytotoxic, single point] | –
O=C(Cn1nc2c(cc1=O)CCCCC2)N1CC=C(c2c[nH]c3ccccc23)CC1 | inactive | –
O=C(C1CCN(Cc2ccccc2-c2ccccc2F)CC1)N1CCOCC1 | inconclusive: 10 µM [cytotoxic, partial curve] | –
CN(C1CCc2nn(CC3CC3)c(=O)n2CC1)S(=O)(=O)c1cccs1 (configuration not stated) | inconclusive: 22.4 µM [rising, partial curve, poor fit] | –
COc1ccc(N(Cc2ccccc2)C(=O)c2nc(S(C)(=O)=O)ncc2Cl)cc1 | active: 6.31 µM | –
COc1ccc(OC)c(CN2CCNc3cnc(-c4ccccc4)cc3C2)c1 | inconclusive: 56.2 µM [cytotoxic, single point] | –
c1ccc(Nc2cc3c(cn2)CN(Cc2c[nH]c4ccccc24)CCN3)cc1 | inconclusive: 35.5 µM [cytotoxic, partial curve, poor fit] | –
Cc1ccccc1C(=O)NCc1nnc2c(-c3nc(C(C)C)no3)cccn12 | inactive | –
COCCCNC(=O)Cn1c(=O)n(-c2cccc(C)c2)c(=O)c2c1c1cc(C)ccc1n2C | inconclusive: 6.31 µM [cytotoxic, full curve] | –
CN1CCN(c2ncc3nc(-c4ccc(Cl)cc4)c(=O)n(Cc4cccs4)c3n2)CC1 | inconclusive: 17.8 µM [rising, partial curve, poor fit] | –
Cc1ccc(NC(=O)CSc2nc3ccccc3n2CC(=O)N2CCC(C)CC2)cc1C | inconclusive: 5.01 µM [cytotoxic, partial curve] | –

SMILES | Potency | activity change, negative = cytotoxicity
COc1ccccc1CNC(=O)CCC(=O)N1CC(C)Sc2ccccc21 (configuration not stated) | inconclusive: 7.08 µM [rising, single point] | –
CC(NC(=O)CN1C(=O)COc2ccc(S(=O)(=O)N3CCCCCC3)cc21)c1ccccc1 (configuration not stated) | inconclusive: 28.2 µM [cytotoxic, partial curve, poor fit] | –
CN(C)CCNC(=O)c1ccc(-n2c(-c3ccccc3)cc3c2CCCCC3)cc1 | inconclusive: 7.08 µM [rising, single point] | –
CN(Cc1nccn1Cc1ccccc1)C(=O)c1cccc(-n2cnnc2)c1 | inactive | –
CCC(C)/C=C(C)/C=C/C1=CC2=C(Cl)C(=O)C(C)(OC(C)=O)C(=O)C2=CN1C(CCCN=C(N)N)C(=O)O (configuration not stated) | inconclusive: 18.4 µM [cytotoxic, single point] | –
Cn1ncc2c(C(=O)NCc3ccc4c(c3)OCO4)cc(-c3ccc(Cl)cc3)nc21 | inactive | –
COC1CC(O[C@H]2CC[C@@]3(C)C(=CC[C@]4(O)C3[C@H](O)[C@@H](O)[C@]3(C)[C@@H]([C@H](C)O)CC[C@@]34O)C2)OC(C)C1OC1CC(OC)C(OC2CC(OC)C(OC3OC(C)C(OC4OC(CO)C(O)C(O)C4O)C(OC)C3O)C(C)O2)C(C)O1 (some centres not stated) | inconclusive: 1.42 µM [cytotoxic, partial curve, poor fit] | –
Cc1cccc(-c2cccc(CN3CCCC(C(=O)N4CCOCC4)C3)c2)c1 (configuration not stated) | inactive | –
COc1ccccc1C(=O)N1CCCN(CCc2ccccc2)c2ccccc21 | inconclusive: 39.8 µM [cytotoxic, single point] | –
COc1ccc(C(=O)c2cn(Cc3cccc(C)c3)c3cc4c(cc3c2=O)OCO4)cc1 | inconclusive: 1.12 µM [cytotoxic, full curve, poor fit] | –
COCc1nc2nccc(-c3ccc(OC)cc3F)n2n1 | inactive | –
CC[C@H](CO)Nc1nc(NCc2ccc(-c3ccccn3)cc2)c2ncn(C(C)C)c2n1 | inconclusive: 4.74 µM [cytotoxic, full curve] | –
COc1ncccc1-c1cc2[nH]ccc2c(C(=O)NCc2c(C)cc(C)[nH]c2=O)n1 | inconclusive: 12.6 µM [cytotoxic, partial curve, poor fit] | –
COc1ccc(-c2nc(C)c(CCNC(=O)c3c(F)cccc3F)s2)cc1 | inactive | –
O=C(c1ccc2c(c1)OCO2)N1CCC2(CC1)CN[S+](=O)([O-])c1ccccc1N2 | inconclusive: 31.6 µM [cytotoxic, single point] | –
O=C(CC1CCN(C(=O)c2ccccc2F)C1)NCc1ccccc1 (configuration not stated) | – | inactive: 3.7% [at 12.5 µM]
Cc1noc(C)c1S(=O)(=O)N1CCCC1c1nncn1C1CCCC1 (configuration not stated) | inactive | –
Cc1ccc(C)c(OCc2cc(C(=O)N3CCC(N4CCSCC4)CC3)no2)c1 | inactive | –
CCOc1cc(-c2noc(-c3nnn4c3COC(c3ccc(Cl)cc3)C4)n2)ccc1OC (configuration not stated) | inactive | –
COc1ccc2cc(CNc3ccc(OC)c(OC)c3)c(=O)n(CC(=O)Nc3ccccc3F)c2c1 | inconclusive: 14.1 µM [cytotoxic, partial curve, poor fit] | –
